{
  "source": "PubChem BioAssay AID1030",
  "about": "(National Center for Advancing Translational Sciences (NCATS), 2008)",
  "note": "Out of some 220,000 compounds screened, about 16,000 (7.3%) were called active. The inconclusive results got no clear call from the source; some entries with a clear call stand among them for comparison. Calls follow the shape of the dose curve; as a rule, active = well fitted inhibition curve with a large enough effect (not every such curve was filed as active); inconclusive = small, poorly fitted or top-dose-only effect, or another doubt; inactive = no such curve, though single readings can be large or run the other way. Potencies of inconclusive entries are left out as doubtful fits. Potency is read from the fitted curve at half-maximal effect; tags tell the direction and shape of the fitted curve.",
  "data": [
    {"molecular_target": "Aldehyde dehydrogenase 1A1 (Homo sapiens) (UniProt P00352)", "sequence (P00352 whole entry, looked up)": "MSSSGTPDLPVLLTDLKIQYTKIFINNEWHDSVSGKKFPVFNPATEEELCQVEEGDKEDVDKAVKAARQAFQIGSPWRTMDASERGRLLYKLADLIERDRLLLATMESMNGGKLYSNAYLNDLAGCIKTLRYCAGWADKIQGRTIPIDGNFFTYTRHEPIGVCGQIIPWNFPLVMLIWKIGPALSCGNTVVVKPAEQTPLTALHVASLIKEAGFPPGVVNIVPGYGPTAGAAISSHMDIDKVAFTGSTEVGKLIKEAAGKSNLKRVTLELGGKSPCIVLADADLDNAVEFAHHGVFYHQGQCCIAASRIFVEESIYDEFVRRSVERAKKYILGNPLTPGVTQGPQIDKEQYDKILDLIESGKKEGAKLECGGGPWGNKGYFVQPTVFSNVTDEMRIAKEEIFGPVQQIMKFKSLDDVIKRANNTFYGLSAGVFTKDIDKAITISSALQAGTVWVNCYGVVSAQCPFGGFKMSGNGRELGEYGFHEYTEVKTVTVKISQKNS", "assay": "qHTS Assay for Inhibitors of Aldehyde Dehydrogenase 1 (ALDH1A1);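 as to activity, negative = inhibition: plate controls were no enzyme wells and a reference inhibitor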", "conditions": "Purified ALDH1A1, NADH fluorescence, propionaldehyde substrate; series mostly up to 75.3 µM", "values": [
      {"smiles": "Cc1ccccc1-c1nc(NCc2cccnc2)c2ccccc2n1", "Potency": "active: 22.4 µM"},
      {"smiles": "CC1CCCN(C(=O)C(C)Nc2cc(Cl)ccc2N2CCOCC2)C1", "note": "(stereo unspecified)", "Potency": "active: 10 µM"},
      {"smiles": "COc1ccc(-c2cc(C(F)F)n3ncc(C(=O)N4CCN5CCCC5C4)c3n2)cc1", "note": "(stereo unspecified)", "Potency": "inconclusive [inhibitor, partial curve]"},
      {"smiles": "O=C1CC(N2CCC(c3nc4ccccc4[nH]3)CC2)C(=O)N1c1cccc(F)c1", "note": "(stereo unspecified)", "Potency": "active: 11.2 µM"},
      {"smiles": "Cc1cc(NC(=O)/C=C/C(=O)N(CC(=O)NC2CCCC2)c2cccc3ccccc23)no1", "Potency": "active: 2 µM"},
      {"smiles": "CCC(C)N1CNc2c(c(=O)[nH]c(=S)n2-c2cccc(C)c2)C1", "note": "(stereo unspecified)", "Potency": "inconclusive [inhibitor, single point]"},
      {"smiles": "CC(=O)C1=C(O)C(=O)N(c2cccc(C(=O)O)c2)C1c1ccccc1F", "note": "(stereo unspecified)", "Potency": "inconclusive [inhibitor, single point]"},
      {"smiles": "CC(C)(C)NC(=O)NC(=O)CN1CCCc2ccccc21", "Potency": "inactive"},
      {"smiles": "c1ccc(-c2nnc3n2CCCC3)cc1", "Potency": "inactive"},
      {"smiles": "Cc1ccc(/C=N/NC(=O)Cn2cnc3c2c(=O)n(C)c(=O)n3C)s1", "Potency": "inactive"},
      {"smiles": "N#CCCn1c(=O)c(-c2cccs2)nc2cnc(Oc3cccc(Cl)c3)nc21", "Potency": "inconclusive [inhibitor, full curve]"},
      {"smiles": "Cc1ccc(NC(=S)N/N=C2\\CC3CC=CC23)c(C)c1", "note": "(stereo unspecified)", "Potency": "active: 25.1 µM"},
      {"smiles": "CCOCCCn1cnc2c3cc(F)ccc3n(C)c2c1=O", "Potency": "inconclusive [inhibitor, single point]"},
      {"smiles": "Cc1ccc(/C=N/NC(=O)CSc2nc3ccccc3n2Cc2ccccc2)o1", "Potency": "inconclusive [inhibitor, single point]"},
      {"smiles": "CCC1=Nc2cc(C(=O)NCc3ccco3)ccc2Sc2ccccc21", "Potency": "inconclusive [inhibitor, single point]"},
      {"smiles": "CCOc1cc(N2CCOCC2)c(OCC)cc1NC(=O)CCC1CCCC1", "Potency": "inconclusive [inhibitor, single point]"},
      {"smiles": "CCN(CC)CCNC(=O)c1c(O)c2cccc3c2n(c1=O)CCC3", "Potency": "inconclusive [inhibitor, single point]"},
      {"smiles": "Cc1cccc(NNC(N)=S)c1C", "Potency": "active: 12.6 µM"},
      {"smiles": "COc1ccc2c(c1)C(=O)N(c1ccccc1OC)C(=O)C2", "Potency": "active: 17.8 µM"},
      {"smiles": "Cc1ccccc1OCc1nnc(SCC(=O)N2c3ccccc3Sc3ccc(Cl)cc32)o1", "Potency": "active: 10 µM"},
      {"smiles": "O=C(Nc1cccc2ccccc12)c1cn(-c2ccccc2)nc1-c1cccs1", "Potency": "inconclusive [inhibitor, single point]"},
      {"smiles": "O=C1c2ccccc2S(=O)(=O)N1Cc1nnc(-c2ccccc2Br)o1", "Potency": "inconclusive [inhibitor, single point]"},
      {"smiles": "CCN(CC)CCNC(=O)c1ccccc1N", "Potency": "inconclusive [inhibitor, partial curve]"},
      {"smiles": "Cc1ccc(-c2cn3cccnc3n2)cc1NC(=O)c1cccs1", "Potency": "inconclusive [inhibitor, partial curve]"},
      {"smiles": "COc1ccccc1CN(Cc1nc2ccccc2c(=O)[nH]1)S(=O)(=O)c1ccc(C)cc1", "Potency": "inconclusive [inhibitor, single point]"},
      {"smiles": "C=C(C)COc1ccc2c3c(c(=O)oc2c1OCC(=C)C)CCC3", "Potency": "inconclusive [inhibitor, partial curve]"},
      {"smiles": "CCC(Sc1ccc2nnc(-c3cccnc3)n2n1)C(=O)OC", "note": "(stereo unspecified)", "Potency": "inconclusive [inhibitor, single point]"},
      {"smiles": "COc1ccc(-c2cc(-c3ccc(OC)cc3)nc(-c3ccc4c(c3)NC(=O)CO4)c2)cc1", "Potency": "inconclusive [inhibitor, single point]"},
      {"smiles": "COc1ccc(/C=C/C(=O)c2ccc(C)c([N+](=O)[O-])c2)cc1O", "Potency": "active: 22.4 µM"},
      {"smiles": "CCOc1ccc(Nc2nc(NCC3CCCO3)c3ccccc3n2)cc1", "note": "(stereo unspecified)", "Potency": "inconclusive [inhibitor, partial curve]"},
      {"smiles": "O=C(Nc1nccs1)C12CC3CC(C1)CC(C(=O)Nc1nccs1)(C3)C2", "Potency": "inactive"},
      {"smiles": "O=C(Nc1ccc(Cl)cc1C(=O)Nc1ccc(Br)cn1)c1ccco1", "Potency": "inconclusive [inhibitor, single point]"},
      {"smiles": "Cc1ccc(C(=O)O)cc1-c1ccc(C=C2C(=O)c3ccccc3C2=O)o1", "Potency": "active: 5.01 µM"},
      {"smiles": "COc1ccc(-c2cc(=O)oc3c(C)c(O)c(CN(C)C)cc23)cc1", "Potency": "inconclusive [inhibitor, single point]"},
      {"smiles": "Cc1c(C(=O)N2CCCC2)nnn1-c1nonc1N", "Potency": "active: 25.1 µM"},
      {"smiles": "COc1ccccc1Oc1ccc(S(=O)(=O)N2CCN(C)CC2)cc1", "Potency": "inconclusive [inhibitor, single point]"},
      {"smiles": "CCN(C(=S)Nc1ccc(Oc2ccccc2)cc1)c1ccccc1", "Potency": "inconclusive [inhibitor, single point]"},
      {"smiles": "O=C(Cn1[nH]c(=O)c2ccccc2c1=O)OCC(=O)N(Cc1ccccc1)Cc1ccccc1", "Potency": "inconclusive [inhibitor, single point]"},
      {"smiles": "O=C(Nc1nnc(-c2ccco2)s1)c1ccccc1", "Potency": "active: 25.1 µM"},
      {"smiles": "CS[C@@H](CC(=O)O)C(=O)O", "activity, negative = inhibition": "inactive: -2.37% [at 13.5 µM]"},
      {"smiles": "Cc1ccc(Cl)cc1N1CCN(C(=S)NCc2ccco2)CC1", "Potency": "inconclusive [inhibitor, single point]"},
      {"smiles": "O=C1c2ccccc2C(Nc2ccc(Cl)cn2)N1c1ccccn1", "note": "(stereo unspecified)", "Potency": "inconclusive [inhibitor, single point]"},
      {"smiles": "COc1ccc(CCN(Cc2cccs2)S(=O)(=O)c2ccc(S(=O)(=O)N3CCCCCC3)cc2)cc1OC", "Potency": "inconclusive [inhibitor, full curve, poor fit]"},
      {"smiles": "COc1cc(CCC(=O)OCC(=O)Nc2ccccc2C(C)C)cc(OC)c1OC", "Potency": "inactive"},
      {"smiles": "O=C(NCCc1ccccc1)c1cc2sccc2n1Cc1ccccc1", "Potency": "inconclusive [inhibitor, single point]"},
      {"smiles": "CCOC(=O)c1c(NC(=S)Nc2ccccc2C)sc2c1CCC2", "Potency": "inconclusive [inhibitor, single point]"}
    ]}
  ]
}
